Reference: patent US8648074B2, “Substituted octahydropyrrolo[1,2-a]pyrazine sulfonamides as calcium channel blockers” (AbbVie Inc., priority 2011, dated 2014)

Target: human Cav2.2 (Homo sapiens, UniProt Q00975)
Assay: In vitro assessment of calcium channel activity using FLIPR (Ca2+ influx in IMR32 cells)
Format: cell-based
Settings: IMR32 cells endogenously expressing human Cav2.2; Calcium 4 dye, 60 minute pre-incubation, 2 μM nifedipine, depolarized with 80 mM KCl; average of at least two runs unless marked *

Row | Compound | IC50
1 | O=C1C(Cc2cccc(F)c2)C[C@H]2CN(S(=O)(=O)c3cccc(C(F)(F)F)c3)CCN12 (stereo partly drawn) [Example 214, (8aS)-7-(3-fluorobenzyl)-2-{[3-(trifluoromethyl)phenyl]sulfonyl}-hexahydropyrrolo[1,2-a]pyrazin-6(2H)-one] | 440 nM
2 | O=S(=O)(c1cccc(C(F)(F)F)c1)N1CCN2C[C@@H](Oc3cnc(C4CC4)cn3)C[C@H]2C1 [Example 49, (7S,8aS)-7-[(5-cyclopropylpyrazin-2-yl)oxy]-2-{[3-(trifluoromethyl)-phenyl]sulfonyl}octahydropyrrolo[1,2-a]pyrazine] | 280 nM
3 | O=C(N[C@H]1C[C@H]2CN(S(=O)(=O)c3ccccc3C(F)(F)F)CCN2C1)c1ccc(Cl)cc1 [Example 9, 4-chloro-N-[(7S,8aS)-2-{[2-(trifluoromethyl)phenyl]sulfonyl}octahydropyrrolo[1,2-a]pyrazin-7-yl]benzamide] | 5120 nM
4 | CCn1cc(S(=O)(=O)N2CCN3C[C@H](Oc4cnc(C5CC5)cn4)C[C@H]3C2)cn1 [Example 165, (7R,8aS)-7-[(5-cyclopropylpyrazin-2-yl)oxy]-2-[(1-ethyl-1H-pyrazol-4-yl)-sulfonyl]octahydropyrrolo[1,2-a]pyrazine] | 16400 nM
5 | Cc1ccc(C#N)c(S(=O)(=O)N2CCN3C[C@H](Oc4cnc(C5CC5)cn4)C[C@H]3C2)c1 [Example 182, 2-{[(7R,8aS)-7-[(5-cyclopropylpyrazin-2-yl)oxy]hexahydropyrrolo[1,2-a]-pyrazin-2(1H)-yl]sulfonyl}-4-methylbenzonitrile] | 1640 nM
6 | O=C1C(Oc2cnc(C3CC3)cn2)C[C@@H]2CN(S(=O)(=O)c3cccc(C(F)(F)F)c3)CCN12 (stereo partly drawn) [Example 222, (8aR)-7-[(5-cyclopropylpyrazin-2-yl)oxy]-2-{[3-(trifluoromethyl)-phenyl]sulfonyl}hexahydropyrrolo[1,2-a]pyrazin-6(2H)-one] | 1250 nM
7 | N#Cc1cccc(S(=O)(=O)N2CCN3C[C@H](Oc4ccc(C(F)(F)F)nc4)C[C@H]3C2)c1 [Example 229, 3-{[(7R,8aS)-7-{[6-(trifluoromethyl)pyridin-3-yl]oxy}hexahydropyrrolo[1,2-a]pyrazin-2(1H)-yl]sulfonyl}benzonitrile] | 4430 nM
8 | O=S(=O)(c1ccccc1C(F)(F)F)N1CCN2C[C@H](Oc3cnc(C4CC4)cn3)C[C@H]2C1 [Example 27, (7R,8aS)-7-[(5-cyclopropylpyrazin-2-yl)oxy]-2-{[2-(trifluoromethyl)phenyl]-sulfonyl}octahydropyrrolo[1,2-a]pyrazine] | 1630 nM
9 | O=C(N[C@H]1C[C@H]2CN(S(=O)(=O)c3ccc(C(F)(F)F)cc3)CCN2C1)c1ccc(F)cc1F [Example 11, 2,4-difluoro-N-[(7S,8aS)-2-{[4-(trifluoromethyl)phenyl]sulfonyl}octahydropyrrolo[1,2-a]pyrazin-7-yl]benzamide] | 2410 nM
10 | CC(F)(F)c1ccc(S(=O)(=O)N2CCN3C[C@H](Oc4cnc(C5CC5)cn4)C[C@H]3C2)cc1 [Example 100, (7R,8aS)-7-[(5-cyclopropylpyrazin-2-yl)oxy]-2-{[4-(1,1-difluoroethyl)-phenyl]sulfonyl}octahydropyrrolo[1,2-a]pyrazine] | 3000 nM
11 | O=S(=O)(c1ccc(C(F)(F)F)cc1)N1CCN2C[C@H](Oc3cnc(C4CC4)cn3)C[C@H]2C1 [Example 25, (7R,8aS)-7-[(5-cyclopropylpyrazin-2-yl)oxy]-2-{[4-(trifluoromethyl)-phenyl]sulfonyl}octahydropyrrolo[1,2-a]pyrazine] | 1330 nM
12 | COc1ccc(OC)c(S(=O)(=O)N2CCN3C[C@H](Oc4cnc(C5CC5)cn4)C[C@H]3C2)c1 [Example 160, (7R,8aS)-7-[(5-cyclopropylpyrazin-2-yl)oxy]-2-[(2,5-dimethoxyphenyl)-sulfonyl]octahydropyrrolo[1,2-a]pyrazine] | 7080 nM
